Several values for one entry are separate records, joined by “and”; a condition that tells them apart may be missing. Equal values may be shown once. Among all 410,000 compounds or so, about 5,000 (1.2%) were called active. This list was built around the results that the source calls inconclusive (neither active nor inactive); the mix of calls is not that of the screen. Calls come from the whole dose curve; as a rule, active = well fitted inhibition curve with a large enough effect; inconclusive = small, poorly fitted or top-dose-only effect; inactive = no such curve, though single readings can be large or run the other way. A potency beside an inconclusive call is a rough fit, not a confirmed value.
Experiment: qHTS for Inhibitors of TGF-b; note: nearly all actives have a fitted effect of over 65% in size
Details: HepG2 CAGA-GFP TGF-b/SMAD3 reporter, GFP fluorescence, 18 h, TGF-beta stimulated, 500 pg/mL final; series mostly up to 46.1 µM; activity, negative = inhibition: at the top concentration
In short: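 Read-out: total well GFP (ex488/em500-530) summed from mean per-cell fluorescence. Cells: HEPG2 CAGA-GFP, 1% FBS DMEM, 18 h at 37 degrees C with 500 pg/mL final TGF-beta. Unstimulated wells served as the full-inhibition control; stimulated DMSO wells = 0%.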
With `COc1ccc(/C=C/c2n[nH]c(=O)c(C#N)c2C)cc1` the “activity, negative = inhibition” value was inactive: -1.53%. In the case of `O=C(NCCc1ccc(Cl)cc1)C1CCCN(S(=O)(=O)N2CCCCCC2)C1` (centres undefined), the Potency is reported as inconclusive: 35.5 µM [inhibitor, single point]. For `CC(C)(C)OC(=O)NCCCC[C@H](NC(=O)c1nc[nH]c1C(=O)N1CCN(C(=O)OC(C)(C)C)CC1)C(=O)OC(C)(C)C`, the “activity, negative = inhibition” value was inactive: -4.47%. In the case of `COc1cc(F)ccc1-c1cc(C(=O)NCc2ccc(C(F)(F)F)cc2)[nH]n1`, the Potency is reported as inconclusive: 35.5 µM [inhibitor, single point]. With `NC(=O)/C(=N\OC(=O)c1ccco1)c1nc(-c2ccc(Br)cc2)cs1` the “activity, negative = inhibition” value was inactive: -25.5%. In the case of `CCN(CC)CC#CCC(C)(c1ccccc1)c1ccccc1`, the Potency is reported as inconclusive: 7.08 µM [inhibitor, partial curve, poor fit]. For `Cc1nc2ccccn2c1CN(C)C(=O)C1CCC(=O)N(CCc2cccc(F)c2)C1` (centres undefined), the “activity, negative = inhibition” value was inactive: -0.595%. In the case of `Cc1ccccc1N=Cc1cc2c(cc1O)OC(N)=C(C#N)C2c1ccccc1` (centres undefined), the Potency is reported as inconclusive: 35.5 µM [inhibitor, single point]. With `Nc1ccnn1Cc1ccc(Br)s1` the Potency was inconclusive: 6.31 µM [inhibitor, single point]. With `Cc1ccc(C2C(C#N)=C(N)Oc3n[nH]c(-c4cccs4)c32)cc1` (centres undefined) the Potency was inconclusive: 31.6 µM [inhibitor, single point]. In the case of `O=C(NC1C/C=C\C(c2ccccc2)N(c2ccccc2)C(=O)C1)OCC1c2ccccc2-c2ccccc21` (centres undefined), the Potency is reported as inconclusive: 35.5 µM [inhibitor, single point]. For `O=C(Nc1cccc2c1CCCC2)N1CCOc2ccc(Cl)cc21`, the Potency was inconclusive: 1.26 µM [inhibitor, full curve, poor fit]. For `O=S(=O)(Nc1cccc2cccnc12)c1cccc2ccccc12`, the Potency was inconclusive: 5.62 µM [inhibitor, full curve, poor fit]. For `CCc1nc2c(OCc3ccc(F)cc3)cccn2c1N(C)C(=O)COc1ccccc1`, the Potency was inconclusive: 20 µM [inhibitor, partial curve, poor fit]. In the case of `COc1ccc(N2CCN(C(c3ccc(F)cc3)c3sc4nc(-c5ccco5)nn4c3O)CC2)cc1` (centres undefined), the Potency is reported as inconclusive: 35.5 µM [inhibitor, single point]. In the case of `CC(=O)n1cc(N(C(=O)CCl)c2ccc(Cl)cc2)c2ccccc21`, the Potency is reported as inconclusive: 10 µM [inhibitor, partial curve, poor fit]. For `O=C(c1cccs1)N1CCN(Cc2ccncc2)CC1`, the “activity, negative = inhibition” value was inactive: -0.574%. For `CN(C)CC(O)CN1C(=O)N(CN2C(=O)N(CC(O)CN(C)C)C(=O)C2(C)C)C(C)(C)C1=O` (centres undefined), the “activity, negative = inhibition” value was inactive: -3.26%. With `Cc1ccc(S(=O)(=O)N(CC(=O)NCCSc2ccc(Cl)cc2)c2cccc(Cl)c2)cc1` the Potency was inconclusive: 14.1 µM [inhibitor, partial curve]. With `CCN1CCN(C(c2ccc(F)cc2)c2sc3nc(-c4ccco4)nn3c2O)CC1` (centres undefined) the “activity, negative = inhibition” value was inactive: 0.0671%. With `COCCn1c(=O)[nH]c2cc(C(=O)N3CCN(c4cccc(C)c4C)CC3)ccc2c1=O` the “activity, negative = inhibition” value was inactive: -19.9%. With `CS(=O)(=O)c1ccc(-c2cn3cc(C(=O)O)ccc3n2)cc1` the “activity, negative = inhibition” value was inactive: 8.89%. For `CCOC(=O)C1(Cc2cccc(OC)c2)CCN(Cc2ccc3c(c2)OCCO3)CC1`, the “activity, negative = inhibition” value was inactive: -0.315%. With `Cc1ccc(S(=O)(=O)CCC(=O)N2CCN(c3nc4c(C)c(C)ccc4s3)CC2)cc1` the Potency was inconclusive: 6.31 µM [inhibitor, single point]. In the case of `CCn1cc(/C=N\NC(=O)c2ccc(Cl)cc2)cn1`, the “activity, negative = inhibition” value is reported as inactive: -6.84%. With `NNC(=S)NC1CCCCCCCCCCC1` the Potency was active: 10 µM. With `COC(=O)C1=C(C)N(Cc2ccccc2)C(=NCc2ccc(OC)cc2)N[C@H]1c1ccccc1` the Potency was inconclusive: 31.6 µM [inhibitor, single point]. In the case of `COc1ccc(-c2nn(-c3ccccc3)cc2C(=O)O)cc1OC`, the “activity, negative = inhibition” value is reported as inactive: -18.4%. In the case of `Cc1ccc(NC(=O)CSc2nccn2C2CCCC2)cc1Cl`, the “activity, negative = inhibition” value is reported as inactive: -11.2%. For `COc1ccc(C(C)=O)cc1CSc1nnc(Nc2ccc(C)cc2C)s1`, the Potency was inconclusive: 35.5 µM [inhibitor, single point]. With `Cc1cccc2sc(NC(=O)CSc3nnnn3C)nc12` the “activity, negative = inhibition” value was inactive: 3.04%. In the case of `Cc1ccc(Nc2c(-c3ccc(C)o3)nc3cnccn23)cc1`, the Potency is reported as inconclusive: 8.91 µM [inhibitor, partial curve]. With `CCCn1cc(S(=O)(=O)c2cccc(Cl)c2)c(=O)c2cc(F)c(N3CCCC3)cc21` the Potency was inconclusive: 20 µM [inhibitor, single point]. With `O=C(N[C@H]1CCC(=O)N([C@H](CSc2ccccc2)Cc2ccccc2)CC1)OCc1ccccc1` the Potency was inconclusive: 35.5 µM [inhibitor, single point]. In the case of `COc1ccccc1CCNC(=O)C1CCN(c2nnc(C)c3c(C)n(-c4ccc(C)cc4)nc23)CC1`, the Potency is reported as inconclusive: 562 nM [inhibitor, full curve] and inconclusive: 3.98 µM [inhibitor, partial curve, poor fit]. For `O=[N+]([O-])c1ccc(O)c(-c2ccnc3cc(-c4ccccc4)nn23)c1`, the Potency was inconclusive: 10 µM [inhibitor, partial curve, poor fit]. With `O=C(c1cccc(S(=O)(=O)N2CCN(c3ccc(F)cc3)CC2)c1)N1CCN(c2ccccc2O)CC1` the Potency was inconclusive: 12.6 µM [inhibitor, partial curve, poor fit]. In the case of `Cc1ccc(Cn2c(CN3CCN(c4cccc(Cl)c4)CC3)nc3c2c(=O)n(C)c(=O)n3C)cc1`, the Potency is reported as inconclusive: 15.8 µM [inhibitor, single point]. With `COCCCNC(=O)c1ccc(Cn2c(=O)c3cccn3c3cccnc32)cc1` the “activity, negative = inhibition” value was inactive: -23.7%. In the case of `COC(=O)N/N=C/c1cn(Cc2ccccc2F)c2ccccc12`, the Potency is reported as inconclusive: 0.355 µM [inhibitor, full curve, poor fit]. With `COc1ccc(C(CC(=O)Nc2ccc(Br)cn2)N2Cc3ccccc3C2=O)cc1` (centres undefined) the “activity, negative = inhibition” value was inactive: 0.338%. With `C=CCOC(=O)C1=C(C)NC(SCC(=O)Nc2ccccc2)=C(C#N)C1c1ccco1` (centres undefined) the Potency was inconclusive: 35.5 µM [inhibitor, partial curve, poor fit]. With `COC(=O)Cn1c(CN(C)Cc2ccccc2)nc2c1c(=O)n(C)c(=O)n2C` the Potency was inconclusive: 35.5 µM [inhibitor, single point]. With `CCCCCCn1c(=O)c(C(=O)N/N=C/c2cccc(F)c2)c(O)c2ccccc21` the “activity, negative = inhibition” value was inactive: 3.53%. For `COc1ccc(C(C)=O)cc1CSc1nnc(Nc2c(C)cccc2C)s1`, the Potency was inconclusive: 35.5 µM [inhibitor, single point]. With `O=C(/C(=C/c1cccc(Cl)c1)c1nc2ccccc2[nH]1)c1ccccc1` the Potency was active: 3.16 µM. For `O=Cc1c(NCCc2cccc(F)c2)c2ccccc2[nH]c1=O`, the Potency was inconclusive: 35.5 µM [inhibitor, single point]. With `CNC(=O)CN1C(=O)C2C3C=CC(C3)C2C1=O` (centres undefined) the Potency was inconclusive: 2.82 µM [inhibitor, full curve, poor fit]. In the case of `Cn1c(C(=O)NCc2cccc(Cl)c2)cc2oc3ccccc3c21`, the “activity, negative = inhibition” value is reported as inactive: -2.47%. In the case of `O=C(CSc1nnnn1-c1ccccc1)Nc1nc(-c2ccccc2)ns1`, the Potency is reported as inconclusive: 35.5 µM [inhibitor, single point]. For `NN/C(=C\[N+](=O)[O-])Nc1ccc(Cl)cc1`, the Potency was inconclusive: 17.8 µM [inhibitor, single point]. In the case of `COc1ccc(C(=O)NC(=S)Nc2ccc(CN3CCOCC3)cc2)cc1Br`, the Potency is reported as active: 11.2 µM. With `COc1ccc(-c2csc(NC(=O)CSc3nc(SC)ns3)n2)cc1` the “activity, negative = inhibition” value was inactive: 3.98%. In the case of `COc1ccc(NS(=O)(=O)c2cc(NC(=O)CC(=O)c3ccc([N+](=O)[O-])cc3)ccc2C)cc1`, the Potency is reported as inconclusive: 35.5 µM [inhibitor, single point]. In the case of `CCC(=O)NC(=S)Nc1ccc(N2CCN(C(=O)c3ccc(Cl)cc3)CC2)cc1`, the Potency is reported as inconclusive: 14.1 µM [inhibitor, single point]. In the case of `Cc1nn2c(=O)cc(COC(=O)c3ccc(NC(=O)COc4ccccc4F)cc3)nc2s1`, the “activity, negative = inhibition” value is reported as inactive: -16.8%. For `CC(=O)N1N=C2c3ccccc3CCC2C1c1cccs1` (centres undefined), the Potency was inconclusive: 6.31 µM [inhibitor, full curve, poor fit]. With `CCOc1ccc(N=c2scc(-c3ccccc3)n2CCO)cc1` the Potency was inconclusive: 22.4 µM [inhibitor, single point]. For `CC(C)c1cc(-c2nc(-c3cccc(Cl)c3)no2)n[nH]1`, the Potency was inconclusive: 35.5 µM [inhibitor, single point]. For `O=[N+]([O-])c1cc(C(F)(F)F)c(Cl)cc1N1CCN(CCO)CC1`, the Potency was inconclusive: 5.62 µM [inhibitor, single point]. For `O=C(NCCc1nc2ccccc2n1CCOc1ccc2ccccc2c1)C1CCCCC1`, the Potency was inconclusive: 35.5 µM [inhibitor, single point]. For `S=C(NCCc1ccccc1)Nc1ccc(Cl)cc1Cl`, the Potency was inconclusive: 11.2 µM [inhibitor, partial curve, poor fit]. In the case of `COc1ccc(NC(=O)CSc2nnc(COc3ccccc3)n2Cc2ccco2)cc1OC`, the “activity, negative = inhibition” value is reported as inactive: -1.45%. With `CC(=O)c1sc(NC(=O)CCS(=O)(=O)c2ccccc2)nc1C` the Potency was active: 17.8 µM. In the case of `Cc1ccc(C2CC(=O)N3CN(Cc4ccco4)CSC3=C2C#N)cc1` (centres undefined), the “activity, negative = inhibition” value is reported as inactive: 10.4%. For `CCc1ccc(OCC2NCCc3cc(OC)c(OC)cc32)cc1` (centres undefined), the “activity, negative = inhibition” value was inactive: -28.7%. For `COc1cc(OC)c(OC)cc1/C=C/c1nc2ccccc2o1`, the “activity, negative = inhibition” value was inactive: 6.29%. With `Cc1ccccc1CN1C[C@@H]2C[C@@H](c3cn[nH]c3-c3ccc(F)cc3)N3CCC[C@@]23C1=O` the Potency was inconclusive: 22.4 µM [inhibitor, single point]. With `Cc1ccc(S(=O)(=O)N2CCN(c3nc(-c4ccc(F)cc4)nc4cc(Cl)ccc34)CC2)cc1` the “activity, negative = inhibition” value was inactive: -29.9%.
% is set by controls: 0 for no effect and ±100 for the full control effect; potency is the fitted concentration of half-maximal effect; tags give direction and shape of the fitted curve.
